This is one part of the list.

This experiment concerns the target T1, MBP-FoxP1dN (Mus musculus, UniProt P58462 326-579).
T1 sequence: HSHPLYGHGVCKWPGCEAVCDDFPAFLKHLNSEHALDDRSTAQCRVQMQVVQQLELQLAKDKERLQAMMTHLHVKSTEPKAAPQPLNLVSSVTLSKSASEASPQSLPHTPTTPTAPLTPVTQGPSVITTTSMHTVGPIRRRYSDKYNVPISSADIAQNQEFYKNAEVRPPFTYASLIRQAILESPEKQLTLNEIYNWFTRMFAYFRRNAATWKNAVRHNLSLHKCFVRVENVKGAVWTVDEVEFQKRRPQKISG
The experiment can be described thus: PD-seq (MBP pull-down with sequencing); 20 mM Tris-HCl pH 7.5, 100 mM NaCl, 1.5 mM MgCl2, 0.4 uM protein, 0.1 uM dsDNA library, 30 min, room temperature, amylose pull-down; high values mean tight binding. To be noted: protein: recombinant; tags: His6-MBP; chain copies: 2; dsDNA, one strand shown. The method in brief: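 His6-MBP-tagged mouse FoxP3 or FoxP1 fragment lacking the N-terminus, expressed in E. coli, was mixed at 0.4 µM with 0.1 µM Klenow-filled double-stranded degenerate DNA library. Incubation was 30 min at room temperature in Tris pH 7.5 buffer with NaCl and MgCl2. Complexes were caught on amylose resin and washed three times; DNA was released with proteinase K, PCR-barcoded and Illumina-sequenced. Binding is reads-per-million enrichment, pull-down over input, with replicates pooled.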
For the sequence “GATGATTGTTCTCCCAGCTGATGAATTGATTGTGTCGAGTAAACAAATTTTCCTAATCTTTCTGTTCAAGCGCCATCTAC”, the binding signal is 1.35 RPM ratio (pull-down/input). Take “GATGATTGTTCTCCCAGCTGATGAATTGAACTAATCGAGTAAACAAATTTTCCTAATCTTTCTGTTCAAGCGCCATCTAC”: the binding signal is 0.992 RPM ratio (pull-down/input). As to “GATGATTGTTCTCCCAGCTGATGAATTGAGAAAATCGAGTAAACAAATTTTCCTAATCTTTCTGTTCAAGCGCCATCTAC”, the binding signal is 0.951 RPM ratio (pull-down/input).

Consider “GATGATTGTTCTCCCAGCTGATGAATTAGTTATCTCGAGTAAACAAATTTTCCTAATCTTTCTGTTCAAGCGCCATCTAC”, for which the binding signal was 0.936 RPM ratio (pull-down/input). In the case of “GATGATTGTTCTCCCAGCTGATGAATTGGAGGAATCGAGTAAACAAATTTTCCTAATCTTTCTGTTCAAGCGCCATCTAC” it was 0.873 RPM ratio (pull-down/input); in that of “GATGATTGTTCTCCCAGCTGATGAATTATGGCAATCGAGTAAACAAATTTTCCTAATCTTTCTGTTCAAGCGCCATCTAC”, 1.23 RPM ratio (pull-down/input); in that of “GATGATTGTTCTCCCAGCTGATGAATTCTCGTCGTCGAGTAAACAAATTTTCCTAATCTTTCTGTTCAAGCGCCATCTAC”, 0.825 RPM ratio (pull-down/input).

In the case of “GATGATTGTTCTCCCAGCTGATGAATTGTCTTCGTCGAGTAAACAAATTTTCCTAATCTTTCTGTTCAAGCGCCATCTAC”, the binding signal was 1.07 RPM ratio (pull-down/input). In the case of “GATGATTGTTCTCCCAGCTGATGAATTAGGCTGATCGAGTAAACAAATTTTCCTAATCTTTCTGTTCAAGCGCCATCTAC”, the binding signal is 0.857 RPM ratio (pull-down/input). Consider “GATGATTGTTCTCCCAGCTGATGAATTTCCTCGCTCGAGTAAACAAATTTTCCTAATCTTTCTGTTCAAGCGCCATCTAC”, for which the binding signal is 0.827 RPM ratio (pull-down/input). With “GATGATTGTTCTCCCAGCTGATGAATTGAAATTGTCGAGTAAACAAATTTTCCTAATCTTTCTGTTCAAGCGCCATCTAC”, the binding signal was 1.01 RPM ratio (pull-down/input).

As for “GATGATTGTTCTCCCAGCTGATGAATTCAAGTTATCGAGTAAACAAATTTTCCTAATCTTTCTGTTCAAGCGCCATCTAC”, the binding signal is 0.942 RPM ratio (pull-down/input).

“GATGATTGTTCTCCCAGCTGATGAATTTGTGCTATCGAGTAAACAAATTTTCCTAATCTTTCTGTTCAAGCGCCATCTAC”: the binding signal was 1.26 RPM ratio (pull-down/input). As for “GATGATTGTTCTCCCAGCTGATGAATTGAGCGAGTCGAGTAAACAAATTTTCCTAATCTTTCTGTTCAAGCGCCATCTAC”, the binding signal is 0.833 RPM ratio (pull-down/input). As to “GATGATTGTTCTCCCAGCTGATGAATTAGCAGCTTCGAGTAAACAAATTTTCCTAATCTTTCTGTTCAAGCGCCATCTAC”, the binding signal was 0.836 RPM ratio (pull-down/input).

On to “GATGATTGTTCTCCCAGCTGATGAATTATAATCTTCGAGTAAACAAATTTTCCTAATCTTTCTGTTCAAGCGCCATCTAC”, for which the binding signal is 0.909 RPM ratio (pull-down/input).

Turning to “GATGATTGTTCTCCCAGCTGATGAATTCCGACGCTCGAGTAAACAAATTTTCCTAATCTTTCTGTTCAAGCGCCATCTAC”, the binding signal was 0.889 RPM ratio (pull-down/input). As for “GATGATTGTTCTCCCAGCTGATGAATTGGATTTGTCGAGTAAACAAATTTTCCTAATCTTTCTGTTCAAGCGCCATCTAC”, the figure is 0.979 RPM ratio (pull-down/input); as for “GATGATTGTTCTCCCAGCTGATGAATTATCATACTCGAGTAAACAAATTTTCCTAATCTTTCTGTTCAAGCGCCATCTAC”, 0.998 RPM ratio (pull-down/input). “GATGATTGTTCTCCCAGCTGATGAATTCCACTAGTCGAGTAAACAAATTTTCCTAATCTTTCTGTTCAAGCGCCATCTAC”: the binding signal was 0.775 RPM ratio (pull-down/input). Consider “GATGATTGTTCTCCCAGCTGATGAATTTCACCCGTCGAGTAAACAAATTTTCCTAATCTTTCTGTTCAAGCGCCATCTAC”, for which the binding signal was 0.867 RPM ratio (pull-down/input). In the case of “GATGATTGTTCTCCCAGCTGATGAATTCCTCGGTTCGAGTAAACAAATTTTCCTAATCTTTCTGTTCAAGCGCCATCTAC” it was 0.776 RPM ratio (pull-down/input); in that of “GATGATTGTTCTCCCAGCTGATGAATTGCAGCAATCGAGTAAACAAATTTTCCTAATCTTTCTGTTCAAGCGCCATCTAC”, 1.33 RPM ratio (pull-down/input).

As for “GATGATTGTTCTCCCAGCTGATGAATTCGGAGCGTCGAGTAAACAAATTTTCCTAATCTTTCTGTTCAAGCGCCATCTAC”, the binding signal is 0.828 RPM ratio (pull-down/input). Regarding “GATGATTGTTCTCCCAGCTGATGAATTTGACAGTTCGAGTAAACAAATTTTCCTAATCTTTCTGTTCAAGCGCCATCTAC”, the binding signal is 0.871 RPM ratio (pull-down/input). As for “GATGATTGTTCTCCCAGCTGATGAATTCGGCCGTTCGAGTAAACAAATTTTCCTAATCTTTCTGTTCAAGCGCCATCTAC”, the figure is 0.876 RPM ratio (pull-down/input). In the case of “GATGATTGTTCTCCCAGCTGATGAATTTAGACGGTCGAGTAAACAAATTTTCCTAATCTTTCTGTTCAAGCGCCATCTAC” it was 0.968 RPM ratio (pull-down/input); in that of “GATGATTGTTCTCCCAGCTGATGAATTCTATTCGTCGAGTAAACAAATTTTCCTAATCTTTCTGTTCAAGCGCCATCTAC”, 0.939 RPM ratio (pull-down/input). Take “GATGATTGTTCTCCCAGCTGATGAATTATGACACTCGAGTAAACAAATTTTCCTAATCTTTCTGTTCAAGCGCCATCTAC”: the binding signal is 1.01 RPM ratio (pull-down/input). On to “GATGATTGTTCTCCCAGCTGATGAATTCATTAGGTCGAGTAAACAAATTTTCCTAATCTTTCTGTTCAAGCGCCATCTAC”, for which the binding signal is 0.864 RPM ratio (pull-down/input). Regarding “GATGATTGTTCTCCCAGCTGATGAATTCACAGGATCGAGTAAACAAATTTTCCTAATCTTTCTGTTCAAGCGCCATCTAC”, the binding signal is 0.817 RPM ratio (pull-down/input). Consider “GATGATTGTTCTCCCAGCTGATGAATTGATGGCCTCGAGTAAACAAATTTTCCTAATCTTTCTGTTCAAGCGCCATCTAC”, for which the binding signal is 0.955 RPM ratio (pull-down/input). In the case of “GATGATTGTTCTCCCAGCTGATGAATTTCAGATATCGAGTAAACAAATTTTCCTAATCTTTCTGTTCAAGCGCCATCTAC” it was 0.878 RPM ratio (pull-down/input); in that of “GATGATTGTTCTCCCAGCTGATGAATTTATATCCTCGAGTAAACAAATTTTCCTAATCTTTCTGTTCAAGCGCCATCTAC”, 1.02 RPM ratio (pull-down/input). For the sequence “GATGATTGTTCTCCCAGCTGATGAATTGAAGAATTCGAGTAAACAAATTTTCCTAATCTTTCTGTTCAAGCGCCATCTAC”, the binding signal was 0.949 RPM ratio (pull-down/input). As for “GATGATTGTTCTCCCAGCTGATGAATTCCGTAGATCGAGTAAACAAATTTTCCTAATCTTTCTGTTCAAGCGCCATCTAC”, the figure is 0.859 RPM ratio (pull-down/input). As for “GATGATTGTTCTCCCAGCTGATGAATTTCGTTCTTCGAGTAAACAAATTTTCCTAATCTTTCTGTTCAAGCGCCATCTAC”, the binding signal is 0.887 RPM ratio (pull-down/input). Regarding “GATGATTGTTCTCCCAGCTGATGAATTACATCTCTCGAGTAAACAAATTTTCCTAATCTTTCTGTTCAAGCGCCATCTAC”, the binding signal is 1.13 RPM ratio (pull-down/input). As for “GATGATTGTTCTCCCAGCTGATGAATTGGTCTCCTCGAGTAAACAAATTTTCCTAATCTTTCTGTTCAAGCGCCATCTAC”, the figure is 0.893 RPM ratio (pull-down/input); as for “GATGATTGTTCTCCCAGCTGATGAATTTAAATTCTCGAGTAAACAAATTTTCCTAATCTTTCTGTTCAAGCGCCATCTAC”, 0.863 RPM ratio (pull-down/input).

The record behind these values is paper PMC12820563, “FoxP3 forms a head-to-head dimer in vivo and stabilizes its multimerization on adjacent microsatellites”.
